The IC50 comes from the fitted curve, where viability falls to half of the control; where the fit passes the top or lowest dose, that dose stands as a limit. For AUC the same curve is integrated over the 256-fold range of doses and scaled to a fraction: 1 means no effect, lower means more sensitive. For some of these results: A top dose marked as inferred is not printed in the source and was worked back from the curve model. For some of these results: Drugs with an entry number were screened twice under separate entries, and the two screens often disagree.

Assay in all cases: Viability of human cancer cell lines after 72 h of drug (GDSC screen)
Compound in one assay: COC(=O)[C@H](CCSC)NC(=O)c1ccc(NC[C@@H](N)CS)cc1-c1ccccc1 [FTI-277]
The settings on record: top dose 1.024 µM; top dose inferred. As for the experimental part: (§1)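 Human cancer cell lines in 384-well plates, medium with 10% serum, drug for 72 h over a 256-fold dose range (nine 2-fold or five 4-fold steps up to the top dose). Adherent lines were fixed and stained with the nucleic acid dye Syto60, suspension lines read with resazurin; signal relative to control wells, capped at 0 and 100%. One two-parameter sigmoid per drug and line, fitted in a mixed model over all curves with the slope shared within a line.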

Compound in another assay: COCC[n+]1c2c(n(Cc3cnccn3)c1C)C(=O)c1ccccc1C2=O [YM155]
The settings on record: top dose 5.12 µM. As for the experimental part:
as §1

Compound in the next assay: C[C@]1(O)C[C@@H](c2nc(-c3ccc4ccc(-c5ccccc5)nc4c3)c3c(N)nccn32)C1 [OSI-906]
The settings on record: top dose 2.56 µM; top dose inferred. As to the method: as §1

Compound in another assay: CN1CCN(c2ccc([N+](=O)[O-])c3no[n+]([O-])c23)CC1 [NSC-207895]
The settings on record: top dose 20 µM; top dose inferred. As for the experimental part:
as §1

Compound in a further assay: Cc1ccc(C(=O)N(CCCN)[C@@H](c2nc3cc(Cl)ccc3c(=O)n2Cc2ccccc2)C(C)C)cc1 [SB-715992]
The settings on record: top dose 0.128 µM; top dose inferred. As for the experimental part: as §1

Compound in a further assay: Cc1sc2c(c1C)C(c1ccc(Cl)cc1)=N[C@@H](CC(=O)OC(C)(C)C)c1nnc(C)n1-2 [JQ1]
As for the experimental part: as §1

Compound in the next assay: O=C(/C=C/c1cccc(S(=O)(=O)Nc2ccccc2)c1)NO [Belinostat]
The settings on record: top dose 20 µM; top dose inferred. As to the method:
as §1

Compound in another assay: c1ccc2c(CCNc3ccc(Nc4ccncc4)cc3)c[nH]c2c1 [JNJ-26854165]
Conditions: top dose 10 µM. As to the method:
as §1

Compound in another assay: CCn1cc(-c2ccnc3[nH]c(-c4cccc(CN(C)C)c4)cc23)c(-c2ccc(NC(=O)N(C)C)cc2)n1 [GSK1070916]
Conditions: top dose inferred. As to the method:
as §1

Where [1] appears, read: top dose 2.56 µM, screen: GDSC drug entry 163.
The mark [2] stands for this setting: top dose 1 µM, screen: GDSC drug entry 1218, top dose inferred.

In general, IC50 refers to the midpoint of a concentration-inhibition curve. Consider SNU-475 (liver, adherent), for which the AUC is 0.991 with FTI-277; 0.198 with YM155; 0.991 with OSI-906; 0.896 in the assay with NSC-207895; 0.967 in the assay with SB-715992; 0.988 with JQ1 (setting [1]). Further, the AUC in the assay with Belinostat was determined as 0.356. In addition, the IC50 was > 1020 nM in the assay with FTI-277; 46.9 nM with YM155; > 2560 nM with OSI-906; 19500 nM with NSC-207895; > 128 nM with SB-715992; > 2560 nM with JQ1 (setting [1]). Also, the IC50 in the assay with Belinostat turned out to be 527 nM.

As to SNU-1040 (large intestine, adherent), the AUC worked out at 0.507 in the assay with YM155; 0.788 with NSC-207895; 0.753 in the assay with SB-715992; 0.944 with JQ1 (setting [2]); 0.758 in the assay with Belinostat. Moreover, the IC50 in the assay with YM155 was 336 nM; with NSC-207895 it was 12200 nM; in the assay with SB-715992 it was 56.4 nM; with JQ1 (setting [2]) it was > 1000 nM; in the assay with Belinostat it was 9190 nM.

Turning to SW1088 (glioma, adherent), the AUC worked out at 0.599 with YM155; 0.937 with OSI-906; 0.979 in the assay with NSC-207895; 0.956 with SB-715992; 0.708 with JNJ-26854165; 0.95 with JQ1 (setting [2]). In addition, the AUC with JQ1 (setting [1]) was 0.972; in the assay with Belinostat, 0.78. Moreover, the IC50 with YM155 was 650 nM; in the assay with OSI-906 it was > 2560 nM; with NSC-207895, > 20000 nM; with SB-715992 it was > 128 nM; in the assay with JNJ-26854165 it was 2910 nM; with JQ1 (setting [2]), > 1000 nM. Also, the IC50 in the assay with JQ1 (setting [1]) was > 2560 nM; with Belinostat, 10900 nM.

With SW1116 (large intestine, adherent), the AUC in the assay with YM155 stood at 0.978; with NSC-207895, 0.931; in the assay with SB-715992, 0.985; in the assay with JNJ-26854165, 0.979; with JQ1 (setting [2]), 0.984; with Belinostat, 0.551. The IC50 in the assay with YM155 is > 5120 nM; with NSC-207895, > 20000 nM; with SB-715992 it was > 128 nM; in the assay with JNJ-26854165 it was > 10000 nM; in the assay with JQ1 (setting [2]), > 1000 nM; in the assay with Belinostat it was 1810 nM.

Take “U-2-OS (osteosarcoma, adherent, top dose 2.56 µM)”: in the assay with GSK1070916, the AUC worked out at 0.95 and the IC50 was > 2560 nM.

As to “U-87-MG (glioma, adherent, top dose 2.56 µM)”, in the assay with GSK1070916, the AUC was determined as 0.973 and the IC50 is > 2560 nM.

As to “U-118-MG (glioma, adherent, top dose 2.56 µM)”, in the assay with GSK1070916, the AUC came to 0.986 and the IC50 is > 2560 nM.

For “U-698-M (B-cell leukaemia, suspension, top dose 2.56 µM)”, in the assay with GSK1070916, the AUC was found to be 0.969 and the 50% inhibitory concentration (IC50) was > 2560 nM.

With “UACC-62 (melanoma, adherent, top dose 2.56 µM)”, in the assay with GSK1070916, the AUC amounted to 0.983 and the IC50 is > 2560 nM.

Turning to “UACC-257 (melanoma, adherent, top dose 2.56 µM)”, in the assay with GSK1070916, the AUC was 0.946 and the IC50 was > 2560 nM.

Regarding “UACC-812 (breast, adherent, top dose 2.56 µM)”, in the assay with GSK1070916, the AUC was 0.981 and the IC50 is > 2560 nM.

As for “UACC-893 (breast, adherent, top dose 2.56 µM)”, in the assay with GSK1070916, the AUC worked out at 0.981 and the IC50 is > 2560 nM.

For “UM-UC-3 (bladder, adherent, top dose 2.56 µM)”, in the assay with GSK1070916, the AUC was 0.929 and the IC50 was > 2560 nM.

With “UMC-11 (lung carcinoid, adherent, top dose 2.56 µM)”, in the assay with GSK1070916, the AUC amounted to 0.94 and the IC50 was > 2560 nM.

In the case of “UWB1.289 (ovary, adherent, top dose 2.56 µM)”, in the assay with GSK1070916, the AUC amounted to 0.96 and the IC50 was > 2560 nM.

On to “VA-ES-BJ (soft tissue, adherent, top dose 2.56 µM)”, for which, in the assay with GSK1070916, the AUC was 0.971 and the IC50 was > 2560 nM.

In the case of “VCaP (prostate, adherent, top dose 2.56 µM)”, in the assay with GSK1070916, the AUC turned out to be 0.865 and the 50% inhibitory concentration (IC50) was found to be 2410 nM.

With “VM-CUB-1 (bladder, adherent, top dose 2.56 µM)”, in the assay with GSK1070916, the AUC is 0.988 and the IC50 was > 2560 nM.

As for “VMRC-MELG (melanoma, adherent, top dose 2.56 µM)”, in the assay with GSK1070916, the AUC was found to be 0.988 and the IC50 was > 2560 nM.

On to “VMRC-RCW (kidney, adherent, top dose 2.56 µM)”, for which, in the assay with GSK1070916, the AUC was found to be 0.982 and the IC50 was > 2560 nM.

Turning to “VMRC-RCZ (kidney, adherent, top dose 2.56 µM)”, in the assay with GSK1070916, the AUC came out at 0.854 and the IC50 is > 2560 nM.

Consider “WIL2-NS (lymphoid neoplasm, suspension, top dose 2.56 µM)”, for which, in the assay with GSK1070916, the AUC was 0.826 and the IC50 was determined as 1180 nM.

Consider “WM35 (melanoma, adherent, top dose 2.56 µM)”, for which, in the assay with GSK1070916, the AUC was found to be 0.911 and the IC50 was > 2560 nM.

As to WM278 (melanoma, adherent), the AUC with FTI-277 was 0.983; with YM155 it was 0.386; in the assay with OSI-906 it was 0.956; with NSC-207895 it was 0.976; with SB-715992, 0.825; with JNJ-26854165, 0.892. For the same cell line, the AUC came to 0.978 with JQ1 (setting [2]) and 0.651 with JQ1 (setting [1]). Besides, the IC50 with FTI-277 was > 1020 nM; in the assay with YM155, 149 nM; in the assay with OSI-906, > 2560 nM; with NSC-207895 it was > 20000 nM; with SB-715992 it was 90.5 nM; in the assay with JNJ-26854165, > 10000 nM. Moreover, the results for the IC50 with JQ1 (setting [2]) and with JQ1 (setting [1]) were > 1000 nM and 444 nM, respectively.

As to “WM278 (melanoma, adherent, top dose 2.56 µM)”, in the assay with GSK1070916, the AUC was 0.924 and the IC50 was > 2560 nM.

For “WM793B (melanoma, adherent, top dose 2.56 µM)”, in the assay with GSK1070916, the AUC came out at 0.917 and the IC50 is > 2560 nM.

Take “WM1552C (melanoma, adherent, top dose 2.56 µM)”: in the assay with GSK1070916, the AUC turned out to be 0.908 and the IC50 was > 2560 nM.

Turning to “WM-115 (melanoma, adherent, top dose 2.56 µM)”, in the assay with GSK1070916, the AUC was 0.929 and the IC50 is > 2560 nM.

As for “WSU-DLCL2 (B-cell lymphoma, suspension, top dose 2.56 µM)”, in the assay with GSK1070916, the AUC came to 0.975 and the IC50 is > 2560 nM.

“WSU-NHL (lymphoid neoplasm, suspension, top dose 2.56 µM)”: in the assay with GSK1070916, the AUC was found to be 0.842 and the IC50 was 1490 nM.

For the cell line “YAPC (pancreas, adherent, top dose 2.56 µM)”, in the assay with GSK1070916, the AUC is 0.961 and the IC50 is > 2560 nM.

Turning to “YH-13 (glioma, adherent, top dose 2.56 µM)”, in the assay with GSK1070916, the AUC was 0.968 and the IC50 was > 2560 nM.

“YKG-1 (glioma, adherent, top dose 2.56 µM)”: in the assay with GSK1070916, the AUC was determined as 0.858 and the IC50 worked out at 2160 nM.

As to YMB-1-E (breast, adherent), the AUC was 0.297 with YM155, 0.971 with NSC-207895, 0.961 with SB-715992 and 0.681 with Belinostat. The IC50 is 68.5 nM with YM155, > 20000 nM in the assay with NSC-207895, > 128 nM with SB-715992 and 4870 nM in the assay with Belinostat.

Consider “YMB-1-E (breast, adherent, top dose 2.56 µM)”, for which, in the assay with GSK1070916, the AUC amounted to 0.982 and the IC50 was > 2560 nM.

Regarding “YT (lymphoid neoplasm, suspension, top dose 2.56 µM)”, in the assay with GSK1070916, the AUC is 0.964 and the IC50 is > 2560 nM.

On to “huH-1 (liver, adherent, top dose 2.56 µM)”, for which, in the assay with GSK1070916, the AUC turned out to be 0.984 and the IC50 was > 2560 nM.

On to “no-10 (glioma, adherent, top dose 2.56 µM)”, for which, in the assay with GSK1070916, the AUC came to 0.98 and the IC50 is > 2560 nM.

Take “no-11 (glioma, adherent, top dose 2.56 µM)”: in the assay with GSK1070916, the AUC came out at 0.913 and the IC50 was > 2560 nM.

Source of the values: the supplement of paper PMC4967469.
